The source of these data is patent US10273244B2, “Substituted hexahydropyrrolo[3,4-b]pyrroles and hexahydrocyclopenta[c]pyrroles as dopamine receptor modulators” (INDIVIOR UK LIMITED, priority 2015, dated 2019).

Like-named read-outs stand apart in the source and are kept apart here.

Test [1] has as its target human dopamine type 3 receptor (CHO-hD3 membranes) (Homo sapiens (Human), UniProt P35462).
Test [2] has as its target human dopamine receptor type 2, long variant (hD2L), CHO-Gα16-hD2L cells (Homo sapiens (Human), UniProt P14416).
UniProt P14416, sequence (P14416 whole entry): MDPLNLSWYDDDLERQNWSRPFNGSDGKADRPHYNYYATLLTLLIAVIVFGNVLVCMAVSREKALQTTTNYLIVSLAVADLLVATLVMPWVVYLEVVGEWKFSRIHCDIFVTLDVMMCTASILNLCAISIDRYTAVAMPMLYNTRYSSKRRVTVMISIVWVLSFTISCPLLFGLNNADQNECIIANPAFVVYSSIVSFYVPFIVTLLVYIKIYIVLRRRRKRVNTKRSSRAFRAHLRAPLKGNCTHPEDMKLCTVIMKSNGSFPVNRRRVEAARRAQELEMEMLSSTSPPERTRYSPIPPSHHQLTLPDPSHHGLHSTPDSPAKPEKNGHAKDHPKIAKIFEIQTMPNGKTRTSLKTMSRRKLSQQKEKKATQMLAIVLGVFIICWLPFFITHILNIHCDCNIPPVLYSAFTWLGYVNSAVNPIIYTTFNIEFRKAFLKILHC
Where [3] appears, read: displacement of 0.3 nM [3H]-Spiperone.
Where [4] appears, read: functional pKi, FLIPR Ca2+, antagonism of dopamine EC80.

UniProt P35462, sequence (P35462 whole entry): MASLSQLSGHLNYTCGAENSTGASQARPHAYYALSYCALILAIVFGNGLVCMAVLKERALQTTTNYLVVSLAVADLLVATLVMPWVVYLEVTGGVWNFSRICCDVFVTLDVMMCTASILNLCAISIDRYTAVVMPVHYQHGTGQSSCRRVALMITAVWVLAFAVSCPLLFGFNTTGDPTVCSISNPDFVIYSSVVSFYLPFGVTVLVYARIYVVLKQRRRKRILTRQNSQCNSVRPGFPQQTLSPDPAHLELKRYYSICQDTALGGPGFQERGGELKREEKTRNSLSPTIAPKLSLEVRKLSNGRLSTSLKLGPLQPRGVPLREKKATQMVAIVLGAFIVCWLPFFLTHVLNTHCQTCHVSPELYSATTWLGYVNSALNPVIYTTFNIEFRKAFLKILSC

Take `Cn1c(SCCCN2C[C@H]3CCN(c4cccnc4)[C@H]3C2)nnc1C1CCOCC1` [Example 48, 3-[(3aR,6aR or 3aS,6aS)-5-(3-{[4-methyl-5-(oxan-4-yl)-4H-1,2,4-triazol-3-yl]sulfanyl}propyl)-octahydropyrrolo[2,3-c]-pyrrol-1-yl]pyridine]: the “D3 pKi” value in test [1] was determined as 7.29. For the same compound, the “D2 fpKi” value in test [2] amounted to 5.79.

As to `Cc1ncoc1-c1nnc(SCCCN2CC3CCCN(c4cccc(C#N)c4)C3C2)n1C.Cl.Cl` (stereo not shown) [Example 235, 3-[6-(3-{[4-methyl-5-(4-methyl-1,3-oxazol-5-yl)-4H-1,2,4-triazol-3-yl]sulfanyl}propyl)-octahydro-1H-pyrrolo[3,4-b]pyridin-1-yl]benzonitrile dihydrochloride], in test [1] (setting [3]), the “D3 pKi” value stood at 7.95. Further, the “D2 fpKi” value in test [2] (setting [4]) is 6.16.

For the compound `Cc1ncoc1-c1nnc(SCCCN2CC3OCCN(c4ccc(C(F)(F)F)cc4)C3C2)n1C` (stereo not shown) [Example 236, 4-methyl-3-(4-methyl-1,3-oxazol-5-yl)-5-[(3-{4-[4-(trifluoromethyl)-phenyl]-octahydropyrrolo[3,4-b]morpholin-6-yl}propyl)sulfanyl]-4H-1,2,4-triazole], the “D3 pKi” value in test [1] (setting [3]) amounted to 7.45. Moreover, the “D2 fpKi” value in test [2] (setting [4]) stood at 6.01.

Turning to `Cl.Cl.Cn1c(SCCCN2C[C@@H]3CCN(c4ccc(C(F)(F)F)cc4)[C@@H]3C2)nnc1N1CCOCC1` [Example 84, 4-[5-({3-[(3aS,6aS or 3aR,6aR)-1-[4-(trifluoromethyl)phenyl]-octahydropyrrolo[3,4-b]pyrrol-5-yl]propyl}sulfanyl)-4-methyl-4H-1,2,4-triazol-3-yl]morpholine dihydrochloride], the “D3 pKi” value in test [1] (setting [3]) is recorded as 8.51. In test [2] (setting [4]), the “D2 fpKi” value is 7.05.

Turning to `COCCC(=O)NC1CCC(CCN2C[C@@H]3CCN(c4ccc(C(F)(F)F)cc4)[C@@H]3C2)CC1` (stereo partly drawn) [Example 222, N-(4-{2[(3aS,6aS or 3aR,6aR) 1-[4-(trifluoromethyl)phenyl]-octahydropyrrolo[3,4-b]pyrrol-5-yl]ethyl}cyclohexyl)-3 methoxypropanamide], the “D3 pKi” value in test [1] (setting [3]) was 7.06. Besides, the “D2 fpKi” value in test [2] (setting [4]) is 6.22.

Take `Cc1ncoc1-c1nnc(SCCCN2CC3CCN(c4ccc(C(F)(F)F)cc4F)C3C2)n1C` (stereo not shown) [Example 17, 3-[(3-{1-[2-fluoro-4-(trifluoromethyl)phenyl]-octahydropyrrolo[2,3-c]pyrrol-5-yl}propyl)sulfanyl]-4-methyl-5-(4-methyl-1,3-oxazol-5-yl)-4H-1,2,4-triazole]: the “D3 pKi” value in test [1] (setting [3]) is recorded as 8.69. In addition, the “D2 fpKi” value in test [2] (setting [4]) came out at 7.04.

On to `COCCC(=O)NC1CCC(CCN2C[C@@H]3CCN(c4ccc(C(F)(F)F)cc4)[C@@H]3C2)CC1` (stereo partly drawn) [Example 223, N-(4-{2-[(3aR,6aR or 3aS,6aS)-1-[4-(trifluoromethyl)phenyl]-octahydropyrrolo[3,4-b]pyrrol-5-yl]ethyl}cyclohexyl)-3-methoxypropanamide], for which the “D3 pKi” value in test [1] (setting [3]) is recorded as 7.23. Besides, the “D2 fpKi” value in test [2] (setting [4]) is listed as 6.11.

Consider `Cc1ncoc1-c1nnc(SCCCN2C[C@H]3CCCN(c4ccc(C(F)(F)F)cc4)[C@H]3C2)n1C` [Example 233, 3-({3-[(4aR,7aR or 4aS,7aS)-1-[4-(trifluoromethyl)phenyl]-octahydro-1H-pyrrolo[3,4-b]pyridin-6-yl]propyl}sulfanyl)-4-methyl-5-(4-methyl-1,3-oxazol-5-yl)-4H-1,2,4-triazole], for which the “D3 pKi” value in test [1] (setting [3]) worked out at 8.24. The “D2 fpKi” value in test [2] (setting [4]) turned out to be 7.01.

Regarding `Cc1ncoc1-c1nnc(SCCCN2C[C@H]3OCCN(c4ccc(C(F)(F)F)cc4)[C@H]3C2)n1C` [Example 238, 3-({3-[(4aS,7aR or 4aR,7aS)-4-[4-(trifluoromethyl)phenyl]-octahydropyrrolo[3,4-b]morpholin-6-yl]propyl}sulfanyl)-4-methyl-5-(4-methyl-1,3-oxazol-5-yl)-4H-1,2,4-triazole], in test [1] (setting [3]), the “D3 pKi” value came out at 7.77. For the same compound, the “D2 fpKi” value in test [2] (setting [4]) was 6.37.

For the compound `Cc1ncoc1-c1nnc(SCCCN2CC[C@@H]3CCN(c4ccc(C(F)(F)F)cc4)[C@@H]3C2)n1C.Cl.Cl` [Example 242, 3-({3-[(3aR,7aS or 3aS,7aR)-1-[4-(trifluoromethyl)phenyl]-octahydro-1H-pyrrolo[2,3-c]pyridin-6-yl]propyl}sulfanyl)-4-methyl-5-(4-methyl-1,3-oxazol-5-yl)-4H-1,2,4-triazole dihydrochloride], the “D3 pKi” value in test [1] (setting [3]) was 7.22. Further, in test [2] (setting [4]), the “D2 fpKi” value is given as 6.45.

For `Cn1c(SCCCN2CC3CCN(c4ccc(C(F)(F)F)cc4)C3C2)nnc1-c1cccnn1` (stereo not shown) [Example 87, 3-{4-methyl-5-[(3-{1-[4-(trifluoromethyl)phenyl]-octahydropyrrolo[3,4-b]pyrrol-5-yl}propyl)sulfanyl]-4H-1,2,4-triazol-3-yl}pyridazine], the “D3 pKi” value in test [1] (setting [3]) amounted to 7.29. The “D2 fpKi” value in test [2] (setting [4]) is 6.24.

In the case of `Cn1c(SCCCN2CC3CCN(c4ccc(C(F)(F)F)cc4)C3C2)nc2ccccc21` (stereo not shown) [Example 80, 1-methyl-2-[(3-{1-[4-(trifluoromethyl)phenyl]-octahydropyrrolo[3,4-b]pyrrol-5-yl}propyl)sulfanyl]-1H-1,3-benzodiazole], the “D3 pKi” value in test [1] (setting [3]) came out at 8.35. In addition, the “D2 fpKi” value in test [2] (setting [4]) amounted to 6.7.

Take `Cc1ncoc1-c1nnc(SCCCCN2CCC3CCN(c4ccc(C(F)(F)F)cc4)C3C2)n1C` (stereo not shown) [Example 240, 4-methyl-3-(4-methyl-1,3-oxazol-5-yl)-5-[(4-{1-[4-(trifluoromethyl)phenyl]-octahydro-1H-pyrrolo[2,3-c]pyridin-6-yl}butyl)sulfanyl]-4H-1,2,4-triazole]: the “D3 pKi” value in test [1] (setting [3]) stood at 7.13. Moreover, the “D2 fpKi” value in test [2] (setting [4]) turned out to be 6.46.

Take `Cc1ncoc1-c1nnc(SCCCN2C[C@@H]3CCN(c4cccc(C#N)c4)[C@@H]3C2)n1C.Cl.Cl` [Example 10, 3-[(3aS,6aS or 3aR,6aR)-5-(3-{[4-methyl-5-(4-methyl-1,3-oxazol-5-yl)-4H-1,2,4-triazol-3-yl]sulfanyl}propyl)-octahydropyrrolo[2,3-c]pyrrol-1-yl]benzonitrile dihydrochloride]: the “D3 pKi” value in test [1] (setting [3]) came to 9.19. Also, in test [2] (setting [4]), the “D2 fpKi” value was 8.66.
